Assay [1] concerns the target T1, CD37 (human, UniProt P11049 1-281).
T1 construct: whole, on cells; also called human CD37; CD37 receptor
T1 sequence (looked up): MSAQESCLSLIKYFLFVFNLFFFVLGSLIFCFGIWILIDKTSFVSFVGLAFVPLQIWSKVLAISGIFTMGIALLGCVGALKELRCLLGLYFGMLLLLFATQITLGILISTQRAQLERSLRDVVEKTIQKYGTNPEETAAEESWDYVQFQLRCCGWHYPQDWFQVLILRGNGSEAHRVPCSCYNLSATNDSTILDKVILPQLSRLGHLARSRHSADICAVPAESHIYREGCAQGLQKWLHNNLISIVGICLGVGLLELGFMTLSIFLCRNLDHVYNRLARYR
The experiment in a line: FMAT competition with labelled CAS-006 on Ramos cells (Example 4).

The target of assay [2] is T1, CD37. The experiment in a line: FMAT competition with labelled CAS-006 on Ramos cells (FIG. 4).

B1: CAS-001 (Fc fusion)
chain: EIVLTQSPATLSLSPGERATLSCRTSENVYSYLAWYQQKPGQAPRLLIYFAKTLAEGIPARFSGSGSGTDFTLTISSLEPEDFAVYYCQHHSDNPWTFGQGTKVEIKGGGGSGGGGSGGGGTGEVQLVQSGAEVKKPGESLKISCKGSGYSFTGYNMNWVRQMPGKGLEWMGNIDPYYGGTTYNRKFKGQVTISADKSISTAYLQWSSLKASDTAMYYCARSVGPMDYWGRGTLVTVSSDQ[sequence of human IgG1 Fc with changes omitted]
notes: also called Vk3: VH5-51
As for B1, the binding result in the assay with CD37 [1] was “binds”.

B2: CAS-003 (Fc fusion)
chain: EIVLTQSPATLSLSPGERATLSCRASENVYSYLAWYQQKPGQAPRLLIYFAKTLAEGIPARFSGSGSGTDFTLTISSLEPEDFAVYYCQHHSDNPWTFGQGTKVEIKGGGGSGGGGSGGGGTGEVQLVQSGAEVKKPGESLKISCKGSGYSFTGYNMNWVRQMPGKGLEWMGNIDPYYGGTTYNRKFKGQVTISADKSISTAYLQWSSLKASDTAMYYCARSVGPFDSWGQGTLVTVSSDQ[sequence of human IgG1 Fc with changes omitted]
notes: also called CAS-003 (hVLhVH); Vk3: VH5 JH5a CDRL1 (T25A)
B2: the binding result with CD37 [2] is “binds”.

B3: CAS-024 [G28-1 VH (M99F, Y102S)-VL (T25A) scFv (SSC-P) H WCH2 WCH3] (Fc fusion)
chain: EVQLVQSGAEVKKPGESLKISCKGSGYSFTGYNMNWVRQMPGKGLEWMGNIDPYYGGTTYNRKFKGQVTISADKSISTAYLQWSSLKASDTAMYYCARSVGPFDSWGQGTLVTVSSGGGGSGGGGSGGGGSGGGGSGGGGSEIVLTQSPATLSLSPGERATLSCRASENVYSYLAWYQQKPGQAPRLLIYFAKTLAEGIPARFSGSGSGTDFTLTISSLEPEDFAVYYCQHHSDNPWTFGQGTKVEIKGDQ[sequence of human IgG1 Fc with changes omitted]
notes: Humanized VH-(G4S)5-VL scFv, SSC-P IgG1 hinge, IgG1 CH2CH3; 483 amino acids; also called CAS-024 (hVHhVL)
Regarding B3, in the assay with CD37 [1], the “fold greater affinity than the humanized VLVH anti-CD37 SMIP molecules” value is not above 4 fold.

The record behind these values is patent US20090274692A1 (TRUBION PHARMACEUTICALS, published 2009).
